Data published in the supplement of paper PMC3334620.
In all, about 33,000 sequences were measured (“E-score (-0.5 to 0.5)”: median about -0.016, highest 2% from about 0.32 on). This is one part of the list.

molecular target: T1, Stp1 (UniProt B3LFK1); test: PBM E-score (8-mer binding enrichment) (E-score (-0.5 to 0.5)); higher = stronger / more preferred TF binding; most listed sequences are background and not binding sites; conditions: protein concentration: 200 nM; construct: GST-full length
T1 sequence: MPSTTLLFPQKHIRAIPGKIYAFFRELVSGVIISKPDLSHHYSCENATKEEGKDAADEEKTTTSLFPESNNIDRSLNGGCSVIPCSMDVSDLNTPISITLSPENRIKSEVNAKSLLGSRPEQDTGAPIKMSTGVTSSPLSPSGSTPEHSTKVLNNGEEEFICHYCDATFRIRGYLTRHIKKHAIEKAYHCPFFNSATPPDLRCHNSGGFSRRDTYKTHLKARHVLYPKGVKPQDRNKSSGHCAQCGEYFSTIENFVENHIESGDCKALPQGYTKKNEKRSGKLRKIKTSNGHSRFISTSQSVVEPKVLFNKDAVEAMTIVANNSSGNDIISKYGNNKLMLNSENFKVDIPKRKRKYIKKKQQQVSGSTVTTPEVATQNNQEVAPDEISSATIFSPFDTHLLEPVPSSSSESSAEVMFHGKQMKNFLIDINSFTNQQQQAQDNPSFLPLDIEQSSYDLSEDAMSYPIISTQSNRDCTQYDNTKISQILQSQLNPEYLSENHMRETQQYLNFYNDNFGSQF
How it was run: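 Masliner-normalised scans of fluorescent anti-GST signal were the basis for scoring. That signal came from GST-tagged yeast transcription factors applied at about 100-200 nM to double-stranded universal all-10-mer Agilent arrays on fresh or once-stripped slides. Each ungapped eight-base word, pooled with its reverse complement, received an E-score from the Universal PBM Analysis Suite.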

| Sequence | PBM E-score |
| --- | --- |
| GGGGTCAC | -0.284 |
| AACTACTT | -0.0113 |
| CAAGCGGG | -0.168 |
| GGCCGGTA | 0.194 |
| TAAGGGTA | -0.209 |
| ATGCCGGA | 0.0395 |
| CAATAACC | 0.0421 |
| TCTCCCCA | -0.293 |
| TACCCACA | -0.143 |
| GAAACAGA | 0.177 |
| TAGATTGA | 0.0779 |
| CCATATCG | 0.0866 |
| ACTAAGCC | -5e-05 |
| CCTTATAG | 0.0305 |
| ACCCTTCA | -0.132 |
| CCCCCGGG | -0.275 |
| TCGTGACA | 0.0244 |
| GCCGAGGA | 0.0308 |
| GAGGTGGA | -0.306 |
| ACCGAAGG | -0.0987 |
| AGAAGTAT | 0.175 |
| CGCGTAGA | 0.00323 |
| GGAGCAGA | -0.199 |
| AGAAGGTC | -0.213 |
| CATACCTA | -0.145 |

| Sequence | PBM E-score |
| --- | --- |
| CAATAGAG | 0.0636 |
| ACGTGCCG | 0.39 |
| AGCACGGG | 0.14 |
| AGATAGGC | -0.12 |
| CAGGGGTC | -0.312 |
| CCTCGTCG | -0.0113 |
| TGGAGCCA | -0.0285 |
| AAGACTGG | -0.0732 |
| CGACAGAG | -0.28 |
| CGAGTCCG | 0.128 |
| TACTAAGA | 0.0816 |
| CTGGAAAA | 0.129 |
| ACCACAGC | -0.027 |
| CTAGTTAA | 0.0478 |
| CTGCGGAC | 0.145 |
| ACTGCAGA | -0.0573 |
| AACTCGGC | 0.106 |
| GGGTCCAC | -0.173 |
| GTCTCGGA | -0.0542 |
| AGGCTTGC | -0.31 |
| AGAGCTCG | -0.149 |
| CCTGATAG | -0.234 |
| ATCGGTCC | -0.132 |
| CCAGCATA | -0.265 |
| ACACTTCA | -0.176 |

| Sequence | PBM E-score |
| --- | --- |
| CTTCAGGA | 0.0371 |
| AGTCAAAA | 0.133 |
| GAGTCGAA | -0.174 |
| ATGATTCC | 0.115 |
| ACTTTACC | -0.0478 |
| TGGGATAA | -0.0721 |
| TCCTAGGA | 0.0231 |
| CCCCCCTA | -0.397 |
| CGCATATA | 0.0132 |
| GGCGCGTA | 0.186 |
| GATATTCC | 0.0635 |
| TATGCACA | -0.0744 |
| TAAAGTAA | 0.0333 |
| ACCTCAAG | -0.0455 |
| CATTGAAC | 0.0944 |
| AATGACAT | -0.00671 |
| CTTCATGC | -0.058 |
| AGCGTCAC | -0.144 |
| CTTGACCC | -0.248 |
| AGATCAGG | -0.173 |
| GTTCTATA | 0.124 |
| GAAAGTAA | 0.00904 |
| AAGTGACG | -0.00161 |
| ACCGCCAG | -0.179 |
| CCCATAGA | -0.325 |

| Sequence | PBM E-score |
| --- | --- |
| GTGCGCAC | 0.158 |
| CGCTAAAA | 0.14 |
| ACATCGGT | -0.226 |
| AAGAGCAA | -0.248 |
| GGGGCATA | -0.118 |
| AATGCAGC | -0.16 |
| ACCAAAAG | 0.187 |
| CCGGATAG | 0.00852 |
| TCATCCCA | -0.163 |
| AGTATTCA | 0.0273 |
| GACTCTAA | -0.126 |
| CCAGTAAA | -0.0637 |
| AGGCTGCG | 0.00283 |
| CCTGGGCC | -0.181 |
| TAATTTCA | 0.242 |
| ACCGAGTG | -0.0999 |
| TCATAAGA | -0.00833 |
| TACATCCA | 0.00245 |
| CGCGGTAC | 0.155 |
| ACAGAGAA | -0.0516 |
| CGGCCGAC | 0.0963 |
| CTAGGTGC | -0.196 |
| GTAAGTCA | -0.0496 |
| ACTGGCGG | -0.0959 |
| CCTTTAAG | -0.207 |

| Sequence | PBM E-score |
| --- | --- |
| ACCGGCGG | 0.0942 |
| TATTGAGA | 0.0944 |
| GTGGAAGA | -0.0607 |
| CGACCGGA | -0.185 |
| CCTGTAAG | -0.144 |
| GCATCAAC | 0.17 |
| AAAATTTA | 0.0665 |
| ACTTCCCA | -0.109 |
| ACGCCCGA | -0.19 |
| CGAAAAAG | 0.134 |
| AATCAAGT | 0.119 |
| ACTAGAAT | -0.0535 |
| AACTATGT | -0.0699 |
| CCGGGGAG | -0.176 |
| ACCAGGGA | -0.208 |
| ATGCACAT | 0.0286 |
| ACTTCCAA | -0.0332 |
| ATTTGTCA | 0.00364 |
| ATGTAAGA | 0.238 |
| ACACGACG | -0.106 |
| CGGCTGGC | -0.0537 |
| CCGTAACA | 0.149 |
| AAAGAAGG | -0.0209 |
| AGCATTTG | -0.0324 |
| ATAATGTC | -0.0933 |

| Sequence | PBM E-score |
| --- | --- |
| GCGAAAGC | -0.00098 |
| AGTACAGG | 0.0326 |
| AAGGGCTC | -0.0205 |
| GATAAAGA | -0.0534 |
| ACAGATTG | -0.051 |
| CACTCATA | 0.154 |
| CGATGCCA | 0.105 |
| AATTGTTG | -0.0553 |
| ACCACCTG | -0.113 |
| GCAGTCAC | -0.213 |
| GTGACTCA | 0.0306 |
| ACGCGCAA | 0.165 |
| CAAACCGC | 0.0838 |
| CCATCCGG | -0.32 |
| CGATATAA | -0.0147 |
| CCGGAAAA | 0.0513 |
| AGAATTGG | -0.0523 |
| ACCAATGC | 0.045 |
| AATTTGGA | 0.0489 |
| CAAAGTAA | 0.0712 |
| ACCCTTCG | -0.0653 |
| ACTTCAAA | -0.215 |
| CAAGTCGG | -0.0998 |
| ACTTTCGG | -0.289 |
| AACGATTC | 0.0142 |

| Sequence | PBM E-score |
| --- | --- |
| GTAGGCAC | 0.198 |
| CTACACAG | -0.0726 |
| TCGGTCCA | 0.00548 |
| GTACTGTA | -0.149 |
| ATGGCGAC | 0.0528 |
| ACTAATAG | 0.153 |
| GATTTTCC | -0.0511 |
| AAACTGAC | -0.201 |
| CTCTTCAA | -0.125 |
| ACGAACTA | -0.00686 |
| CTACGGTA | -0.146 |
| AAACACAG | 0.0351 |
| TCGTCAAA | 0.159 |
| CCCGTTAC | -0.0391 |
| AAGCTCCG | 0.0533 |
| AGCGAAGA | -0.0506 |
| AAACTGCT | -0.16 |
| CCTGCTTA | -0.0853 |
| CTGCTGTA | -0.0802 |
| GAGATGTA | -0.143 |
| GAAGAAGA | -0.0873 |
| CGGGGTGC | 0.0645 |
